Measurements published in publication PMC2804594.
These are yes or no findings as the source states them, for the method shown. For some of these results: Binding seen in cells or lysates may run through a third protein. Some binding calls cover weakened binding; strength is not graded here. For some of these results: Where a sequence is shown, tags or fusion partners need not be part of it.

Amino acid sequences for entries named in this document (tags omitted). A change or cut given only in a name is not applied to a line headed by its entry. Residues count along the entry.
UniProt P03372: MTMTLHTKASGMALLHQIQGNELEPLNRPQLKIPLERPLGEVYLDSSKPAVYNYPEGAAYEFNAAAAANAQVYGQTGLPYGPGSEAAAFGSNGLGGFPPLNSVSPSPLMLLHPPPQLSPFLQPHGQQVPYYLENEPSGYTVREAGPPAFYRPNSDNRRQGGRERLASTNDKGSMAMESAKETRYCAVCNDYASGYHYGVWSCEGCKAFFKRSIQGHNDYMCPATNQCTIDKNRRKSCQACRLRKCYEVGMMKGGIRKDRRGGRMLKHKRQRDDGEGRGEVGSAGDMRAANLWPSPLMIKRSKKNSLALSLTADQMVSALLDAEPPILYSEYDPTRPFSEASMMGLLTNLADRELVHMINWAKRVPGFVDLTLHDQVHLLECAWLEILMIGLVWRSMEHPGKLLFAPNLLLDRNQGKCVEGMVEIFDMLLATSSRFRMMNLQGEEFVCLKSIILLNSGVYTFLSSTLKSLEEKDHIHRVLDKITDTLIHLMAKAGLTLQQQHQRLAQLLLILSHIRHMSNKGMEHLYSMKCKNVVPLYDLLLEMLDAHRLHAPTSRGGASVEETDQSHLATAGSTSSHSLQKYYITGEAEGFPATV
UniProt Q9BQ69: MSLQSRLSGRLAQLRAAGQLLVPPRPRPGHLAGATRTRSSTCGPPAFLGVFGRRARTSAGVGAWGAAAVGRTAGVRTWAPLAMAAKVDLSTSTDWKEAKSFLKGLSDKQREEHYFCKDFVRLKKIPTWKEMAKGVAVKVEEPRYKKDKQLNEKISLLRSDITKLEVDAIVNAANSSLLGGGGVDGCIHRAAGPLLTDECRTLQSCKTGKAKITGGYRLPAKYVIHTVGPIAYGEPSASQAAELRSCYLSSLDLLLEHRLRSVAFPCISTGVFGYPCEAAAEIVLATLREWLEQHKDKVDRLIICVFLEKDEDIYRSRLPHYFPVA
GST-LRP16-N (1-160): residues 1-160 of Q9BQ69
GST-LRP16-C (161-324): residues 161-324 of Q9BQ69

Columns and labels:
[1] = target: T1, endogenous keratin 18 of MCF-7 cells (human (endogenous in MCF-7)) (UniProt P05783); assay: co-IP; MCF-7 cell lysates (20 mM Tris pH 7.4, 50 mM NaCl, 1 mM EDTA, 0.5% NP-40, 0.5% SDS, 0.5% deoxycholate; 2% Empigen BB to solubilize keratins), antibody overnight at 4°C, immunoblotting; cells transfected with LRP16, Flag-K18-C1, K18 or empty vector; in one panel treated with E2 (100 nM) for 1 h
T1 sequence: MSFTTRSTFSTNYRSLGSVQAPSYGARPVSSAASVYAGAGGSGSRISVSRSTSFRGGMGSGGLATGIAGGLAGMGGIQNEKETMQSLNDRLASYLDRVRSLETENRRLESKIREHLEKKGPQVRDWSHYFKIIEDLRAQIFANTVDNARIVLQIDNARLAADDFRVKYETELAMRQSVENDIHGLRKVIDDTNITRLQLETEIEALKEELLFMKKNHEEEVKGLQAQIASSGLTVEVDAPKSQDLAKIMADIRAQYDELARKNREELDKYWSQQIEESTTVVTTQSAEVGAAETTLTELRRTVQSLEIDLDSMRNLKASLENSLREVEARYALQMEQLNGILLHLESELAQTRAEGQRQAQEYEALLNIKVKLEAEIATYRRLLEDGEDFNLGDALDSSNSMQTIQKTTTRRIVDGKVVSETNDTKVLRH

[2] = target: T2, Flag-K18-C1 (amino acids 301-430) (human) (UniProt P05783); assay: as above
T2 sequence: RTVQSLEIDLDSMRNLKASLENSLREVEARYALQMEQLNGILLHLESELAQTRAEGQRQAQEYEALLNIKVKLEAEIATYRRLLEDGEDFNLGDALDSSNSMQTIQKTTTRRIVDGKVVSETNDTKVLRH

[3] = target: estrogen receptor α of MCF-7 cells (human (endogenous in MCF-7)) (UniProt P03372); assay: as above
[4] = target: Gal4 DNA binding domain-LRP16 fusion (pGBKT7-LRP16) (human) (UniProt Q9BQ69); assay: two-hybrid; yeast AH109 transformed with GAL4-DBD and GAL4-AD chimeric constructs; chromogenic X-Gal assay and liquid ONPG beta-galactosidase assay
[5] = target: endogenous LRP16 of MCF-7 cells (human (endogenous in MCF-7)) (UniProt Q9BQ69); assay: co-IP; MCF-7 cell lysates (20 mM Tris pH 7.4, 50 mM NaCl, 1 mM EDTA, 0.5% NP-40, 0.5% SDS, 0.5% deoxycholate; 2% Empigen BB to solubilize keratins), antibody overnight at 4°C, immunoblotting; cells transfected with LRP16, Flag-K18-C1, K18 or empty vector; in one panel treated with E2 (100 nM) for 1 h
[6] = target: GST-LRP16 fusion protein (human) (UniProt Q9BQ69); assay: pull-down; GST or GST fusion proteins with in vitro-translated 35S-labeled K18 and its deletion mutants; SDS-PAGE; only the target purified
[7] = target: GST-LRP16-C (161-324) (human) (UniProt Q9BQ69); assay: as above
[8] = target: GST-LRP16-N (1-160) (human) (UniProt Q9BQ69); assay: as above

LRP16 expressed from pcDNA3.1-LRP16 in MCF-7 cells (from UniProt Q9BQ69 1-325)
binding [1]: binds

endogenous LRP16 of MCF-7 cells (from UniProt Q9BQ69 1-325)
binding [2]: binds | binding [1]: binds | binding [3]: binds

B1: Gal4 activation domain-K18 fusion (pGADT7-K18) (protein, UniProt P05783 1-430)
chain: T1 sequence
binding [4]: binds

B2: Flag-K18-C1 (amino acids 301-430) (domain or fragment, UniProt P05783 301-430)
chain: T2 sequence
binding [5]: binds

B3: ectopically expressed K18 in MCF-7 cells (K18 expression vector) (protein, UniProt P05783 1-430)
chain: T1 sequence
binding [5]: binds | binding [3]: no binding

B4: in vitro-translated 35S-labeled full-length K18 (protein, UniProt P05783 1-430)
chain: T1 sequence
modifications: 35S-labeled
binding [6]: binds | binding [7]: binds | binding [8]: binds weakly

B5: K18-C1 (301-430), in vitro translated (domain or fragment, UniProt P05783 301-430)
chain: T2 sequence
modifications: 35S-labeled
binding [6]: binds

FNLGDALDSSNSMQTIQKTTTRRIVDGKVVSETNDTKVLRH (domain or fragment, UniProt P05783 390-430, 35S-labeled) [K18-C2 (390-430), in vitro translated]
binding [6]: binds

B6: K18-N (amino acids 1-150), in vitro translated (domain or fragment, UniProt P05783 1-150)
chain: MSFTTRSTFSTNYRSLGSVQAPSYGARPVSSAASVYAGAGGSGSRISVSRSTSFRGGMGSGGLATGIAGGLAGMGGIQNEKETMQSLNDRLASYLDRVRSLETENRRLESKIREHLEKKGPQVRDWSHYFKIIEDLRAQIFANTVDNARI
modifications: 35S-labeled
binding [6]: no binding

B7: K18-F (80-375), in vitro translated (domain or fragment, UniProt P05783 80-375)
chain: EKETMQSLNDRLASYLDRVRSLETENRRLESKIREHLEKKGPQVRDWSHYFKIIEDLRAQIFANTVDNARIVLQIDNARLAADDFRVKYETELAMRQSVENDIHGLRKVIDDTNITRLQLETEIEALKEELLFMKKNHEEEVKGLQAQIASSGLTVEVDAPKSQDLAKIMADIRAQYDELARKNREELDKYWSQQIEESTTVVTTQSAEVGAAETTLTELRRTVQSLEIDLDSMRNLKASLENSLREVEARYALQMEQLNGILLHLESELAQTRAEGQRQAQEYEALLNIKVKLEA
modifications: 35S-labeled
binding [6]: no binding

B8: endogenous keratin 18 of MCF-7 cells (protein, UniProt P05783 1-430)
chain: T1 sequence
binding [3]: no binding
